Assay results: PubChem BioAssay AID1508642 (National Center for Advancing Translational Sciences (NCATS), 2021)
Hit rate of the full screen: of about 43,000 compounds, about 200 (0.47%) were called active. Inconclusive results (about 12%) are left out. Calls come from the whole dose curve; as a rule, active = well fitted cell-killing curve with a large enough effect; inconclusive = small, poorly fitted or top-dose-only effect, or effect the other way; inactive = flat fitted curve, though single readings scatter. This is one part of the list.

Experiment: Cell viability qHTS assay in S16 Pmp22-F2sN cells; note: nearly all actives have a fitted effect of over 65% in size
Conditions: S16 Pmp22-F2sN Schwann cells (luciferase reporters placed in the Pmp22 gene) viability, CellTiter-Glo, 24 h; series mostly up to 57.5 µM; activity change, negative = cytotoxicity: at the top concentration
Procedure, shortened: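 CellTiter-Glo counter-screen, qHTS, 1536-well. Cells: S16(c9) Pmp22-F2sN, 500-1,000/well in DMEM + 10% FBS. Cpd 23 nL pin transfer, 24 h, 37C/5% CO2. Read: luminescence, CCD imager.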
% is set by controls: 0 for no effect and ±100 for the full control effect.

Row | SMILES | activity change, negative = cytotoxicity
1 | COc1ccc(CCNC(=O)c2ccc3c(c2)N(Cc2cccc(Cl)c2)C(=O)c2ccccc2S3=O)cc1OC (configuration not stated) | inactive: -1.8%
2 | O=C(Cn1c(=O)n(-c2ccccc2)c(=O)c2ccc(C(=O)NCc3ccc4c(c3)OCO4)cc21)Nc1ccc(F)c(Cl)c1 | inactive: -10.2%
3 | COc1ccc(N(C(=O)c2cccc(C)c2)S(=O)(=O)c2ccc3c(c2)n(C)c(=O)n3C)cc1 | inactive: -6.51%
4 | CCOC(=O)c1cc(OC(=O)c2ccccc2OC)n(-c2ccccc2)n1 | inactive: -0.895%
5 | CC(=O)N1CCc2cc(S(=O)(=O)NC(Cc3ccccc3)C(=O)Nc3ccc(C)cc3C)ccc21 (configuration not stated) | inactive: 6.56%
6 | O=C(CSc1nc2ccsc2c(=O)n1Cc1ccccc1F)NCc1ccccc1Cl | inactive: -16.2%
7 | Cc1ccc(C)c(Cn2c(=O)n(-c3ccc(F)cc3)c(=O)c3sc4ccccc4c32)c1 | inactive: 3.27%
8 | Clc1cccc(-n2ncc3c(Nc4ccc5c(c4)OCCO5)ncnc32)c1 | inactive: -4.23%
9 | COc1ccc(N2CCN(C(=O)Cn3c(-c4cccs4)cc4ccccc43)CC2)cc1 | inactive: 13%
10 | O=c1cc2nc(-c3ccccc3)nc(SCCOc3ccc(Cl)cc3)n2[nH]1 | inactive: -1.67%
11 | Cc1nn2c(-c3ccco3)ccnc2c1-c1ccc(Cl)cc1 | inactive: 12.8%
12 | CCOC(=O)c1cnc2c(C)cc(C)cc2c1Nc1ccccc1OCC | inactive: 19.5%
13 | COc1ccc(C(=O)Nc2ccc3oc(-c4cc(Cl)ccc4Cl)nc3c2)cc1Br | inactive: 29.9%
14 | O=C(Nc1cccc(Cl)c1Cl)c1cc(S(=O)(=O)N2CCCc3ccccc32)ccc1F | inactive: -0.583%
15 | COc1cc(OC)c(N(C)C(=O)CSc2c3c(nc4ccc(Cl)cc24)CCCC3)cc1Cl | inactive: -3.48%
16 | CCc1ccccc1NC(=O)Nc1cc(C(=O)NCc2ccccc2OC)ccc1N1CCCC1 | inactive: -9.52%
17 | CCCN(C(=O)Cn1ncc2c([nH]c3ccccc32)c1=O)c1ccc(F)cc1 | inactive: 0.35%
18 | COc1ccc2c(c1)c(=O)c(S(=O)(=O)c1ccccc1)cn2CC(=O)Nc1ccc2c(c1)OCO2 | inactive: -0.0218%
19 | CCOC(=O)C1CCCN(C(=O)c2ccc3c(c2)N(Cc2ccccc2F)C(=O)c2ccccc2S3=O)C1 (configuration not stated) | inactive: 13.5%
20 | COc1ccc(CCNC(=O)CCn2c(=O)c3ccccc3n(CC(=O)Nc3cc(Cl)ccc3C)c2=O)cc1OC | inactive: 1.5%
21 | CC(=O)c1cccc(NC(=O)CCCSc2nc(-c3ccco3)cc(C(F)(F)F)n2)c1 | inactive: -19.6%
22 | Cc1ccc(NC(=O)c2ccc(CNS(=O)(=O)c3ccc4c(c3)C(C)(C)C(=O)N4C)cc2)cc1 | inactive: 1.41%
23 | COc1cccc(-c2nc(SCC(=O)NCC3CCCO3)c(-c3ccc(Cl)cc3)[nH]2)c1 (configuration not stated) | inactive: -24.5%
24 | CN(C)CCNC(=O)C(=O)NCC(c1cccnc1)N1CCN(c2ccccc2)CC1 (configuration not stated) | inactive: 3.28%

Row | SMILES | activity change, negative = cytotoxicity
25 | COc1ccc(NC(=O)CN2C(=O)C(c3ccc(C)cc3)=NC23CCCCCC3)cc1Cl | inactive: -9.63%
26 | Cc1noc(-c2ccc(-c3noc(-c4cccc(Cl)c4)n3)cc2)n1 | inactive: -2.07%
27 | Cc1ccc(S(=O)(=O)C(CNC(=O)c2ccc(C(F)(F)F)cc2)c2ccco2)cc1 (configuration not stated) | inactive: -13.3%
28 | CCc1ccc2occ(CC(=O)Nc3sc4c(c3C(=O)NCCOC)CCCC4)c2c1 | inactive: -1.83%
29 | Cc1nc2nc(SCC(=O)NC3CCC(C)CC3)nn2c(C)c1Cc1ccccc1Cl (configuration not stated) | inactive: -3.15%
30 | Cn1cc(S(=O)(=O)N2CCCCC2)cc1C(=O)Nc1ccc(OC(F)(F)F)cc1 | inactive: 8.1%
31 | O=C(Cn1cc(S(=O)(=O)c2ccccc2)c(=O)c2cc3c(cc21)OCO3)Nc1ccccc1 | inactive: 1.82%
32 | O=C(NCCCc1ccccc1)c1nn(-c2ccccc2)nc1CO | inactive: -3.88%
33 | Cc1ccc(S(=O)(=O)n2nc(-c3ccco3)nc2NCc2ccc(N(C)C)cc2)cc1 | inactive: -4.82%
34 | CCOC(=O)c1ccc(NC(=O)CCC(=O)N2CCSc3ccccc32)cc1 | inactive: 2.69%
35 | CCc1ccc2oc(-c3ccc(C)c(NC(=O)c4ccc(C#N)cc4F)c3)nc2c1 | inactive: 0.719%
36 | CCn1cc2nc(SCc3cccc(C)c3)n(CCc3ccccc3)c(=O)c2n1 | inactive: 6.6%
37 | Cc1ccccc1NC(=O)Cn1cc(S(=O)(=O)N2CCCC2)c(S(=O)(=O)N2CCCC2)c1 | inactive: -0.924%
38 | CC1=C(C(=O)Nc2ccccc2)C(c2ccccn2)n2nc(SCc3ccccc3Cl)nc2N1 (configuration not stated) | inactive: 16.6%
39 | CCC(=O)Nc1cccc(OCc2cc(=O)n3cc(C)ccc3n2)c1 | inactive: -1.24%
40 | COC(=O)c1ccc(Oc2nc3c(c(=O)n(C)c(=O)n3C)n2Cc2ccc(Cl)c(Cl)c2)cc1 | inactive: 4.1%
41 | CCc1ccc(NS(=O)(=O)c2c(-c3ccccc3)csc2C(=O)OC)cc1 | inactive: -0.323%
42 | COc1ccccc1N(CC(=O)Nc1cc(C)cc(C)c1)S(C)(=O)=O | inactive: 7.05%
43 | O=C(Nc1nnc(S(=O)(=O)N2CCCCCC2)s1)c1ccccc1 | inactive: 2.46%
44 | CN(Cc1ccco1)S(=O)(=O)c1nnc(NC(=O)c2ccccc2)s1 | inactive: 0.116%
45 | CCc1cccc(NC(=O)Cn2ccn3nc(-c4ccc(OC)c(OC)c4)cc3c2=O)c1 | inactive: -1.13%
46 | COc1ccc(S(=O)(=O)N(CC(=O)Nc2ccc3c(c2)OCO3)c2ccc(C)cc2)cc1 | inactive: 15.7%
47 | COc1cc(OC)cc(C(=O)Nc2ccc3c(c2)n(C)c(=O)c(=O)n3C)c1 | inactive: 10.9%
